Results published in PubChem BioAssay AID485367 (National Center for Advancing Translational Sciences (NCATS), 2010).
Hit rate of the full screen: of about 330,000 compounds, about 560 (0.17%) were called active. Not shown: some 1% with an inconclusive outcome. The call rests on the fitted dose curve; in most records, active means well fitted inhibition curve with a large enough effect; inconclusive means small, poorly fitted or top-dose-only effect, or effect the other way; inactive means flat fitted curve, though single readings scatter. This is a selection; strong and weak results do not stand in their true shares.

The compounds below were run against ATP-dependent 6-phosphofructokinase (Trypanosoma brucei brucei) (UniProt O15648) (assay: qHTS Assay to Find Inhibitors of T. brucei phosphofructokinase). Conditions: T. brucei PFK, ADP-Glo luminescence; series mostly up to 57.5 µM; activity, negative = inhibition: at the top concentration.
Chain of UniProt O15648 (O15648 whole entry, looked up): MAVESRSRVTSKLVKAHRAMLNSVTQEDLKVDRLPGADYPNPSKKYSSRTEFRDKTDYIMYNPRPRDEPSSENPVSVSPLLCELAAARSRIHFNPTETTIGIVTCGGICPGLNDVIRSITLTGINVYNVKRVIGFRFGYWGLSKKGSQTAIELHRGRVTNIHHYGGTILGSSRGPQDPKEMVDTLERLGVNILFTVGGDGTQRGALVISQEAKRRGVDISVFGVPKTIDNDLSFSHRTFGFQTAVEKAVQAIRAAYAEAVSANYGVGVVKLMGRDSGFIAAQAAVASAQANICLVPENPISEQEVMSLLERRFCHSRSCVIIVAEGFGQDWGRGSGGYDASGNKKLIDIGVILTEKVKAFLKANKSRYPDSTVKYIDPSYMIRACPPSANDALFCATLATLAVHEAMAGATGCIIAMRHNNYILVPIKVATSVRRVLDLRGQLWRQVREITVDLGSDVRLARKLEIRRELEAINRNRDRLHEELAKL
Excerpt: NIH Molecular Libraries Probe Production Network [MLPCN] NIH Chemical Genomics Center [NCGC] Grant: 1 R03 MH092153-01 PI Name: Malcolm Walkinshaw, University of Edinburgh NCGC Assay Overview: Various species of the protozoan family Trypanosomatidae are responsible for a range of serious human diseases in tropical and subtropical areas of the world. […] Many of the disorders caused by trypanosomatids are fatal if left untreated, but most currently used drugs are inefficient and toxic. […] Oxidative metabolism involving the mitochondrial tricarboxylic acid cycle and oxidative phosphorylation are repressed in these parasites, and recent RNA interference (RNAi) experiments have shown that even partial depletion of certain individual glycolytic enzymes can lead to the death of cultured parasites. One such glycolytic enzyme, phosphofructokinase (PFK), catalyzes the formation of fructose-1,6-bisphosphate (F1,6BP) and ADP from fructose-6-phosphate (F6P) and ATP, and in many metabolic circumstances makes an important contribution to the control of flux through the glycolytic pathway. As a specific glycolytic target, PFK is particularly attractive as it catalyzes the first irreversible step in glycolysis, and structural and kinetic studies have shown very substantial and essential differences from corresponding host enzymes, allowing for the discovery of parasite-selective inhibitors. The goal of this screen is to find small-molecule inhibitors of T. brucei PFK using a biochemical assay that measures PFK activity as a function of ADP production. A luminescence-based assay for T. brucei PFK activity has been developed which uses luciferase to detect production of ADP. Traditional luciferase-based nucleotide detection reagents rely on ATP production as a direct substrate for the luciferase reaction; however, PFK catalyzes the transfer of a phosphate from ATP to F6P, resulting in the net depletion of ATP. To directly measure the ADP product of the PFK reaction, we used the ADP-Glo detection kit (Promega), which utilizes two separate reactions to 1) deplete all remaining uncatalyzed ATP and 2) convert all remaining ADP to ATP, which is then detected through a traditional luciferase-coupled reaction. Compounds were screened as a concentration-titration series that ranged from 57 uM to 0.7 nM.
NCGC Assay Protocol Summary: NCGC Assay Protocol Summary: Substrate buffer was dispensed into white, solid 1536-well plates at 3uL/well in 0.1M triethanolamine (TEA) buffer, pH 8.0, containing final concentrations of 5 mM MgCl2, 0.01% Tween20, 0.5 mM fructose-6-phosphate (F6P) and 0.1mM ATP. Then, 23 nL of compounds or DMSO were delivered to each well using a pin tool. One uL T. brucei PFK (0.1M TEA, 0.01% Tween20, 0.1% bovine serum albumin (BSA) and 1.25nM PFK, final concentrations) was then dispensed, and plates were incubated at room temperature for 45 min. The luminescent detection reagent, ADP-Glo (Promega), was then added in two steps: the first reagent, ADP-Glo (which converts remaining uncatalyzed ATP), was added at 2.5uL/well and incubated for ten minutes at room temperature, and the second component, Kinase Detection reagent (which converts ADP to ATP as a substrate for luciferase-based luminescence), was added immediately after at 5uL/well, followed by one final ten minute room temperature incubation. The plates were measured on a ViewLux plate reader for luminescent signal using a clear filter with a one second exposure. The %Activity was determined from the corrected luminescence values. As no specific T. brucei PFK inhibitors have been identified in the literature, 1x (1.25nM) and 0x PFK enzyme controls (untreated) were included to normalize %Activity of identified inhibitors; 0x enzyme values corresponded to 100%Activity (full inhibition), while 1x PFK enzyme values were used to normalize 0%Activity (no inhibition). Concentration-response curves were fitted to the signals arising from the resulting luminescence. […]
Further: nearly all actives have a fitted effect of over 60% in size.
Potency means the concentration at half of the fitted maximal effect.

How did the “activity, negative = inhibition” value turn out when `CN1C(=O)NC(=O)/C(=C\c2ccc([N+](=O)[O-])o2)C1=O` was run?
Its value is inactive: 18.4%.

`FCCN(CCF)c1cccc(Cl)c1` was tested. Which Potency did it give?
Its Potency is active: 19 µM.

Which “activity, negative = inhibition” value does the source give for `Cc1cc(/C=C2\C(=O)NC(=O)N(Cc3ccco3)C2=O)c(C)n1-c1ccc(C(=O)O)cc1` here?
Its value is inactive: -0.738%.

With `CN(C)[C@@H]1C(=O)C(C(N)=O)=C(O)[C@@]2(O)C(=O)C3=C(O)c4c(O)cccc4[C@@](C)(O)C3[C@H](O)C12` (stereo partly specified) as the compound, how does the “activity, negative = inhibition” value read?
The value was inactive: -13.8%.

For `COc1cccc([C@@]2(O)CCCC[C@@H]2CN(C)C)c1`, which “activity, negative = inhibition” value is on record?
The value was inactive: -5.84%.

How did the “activity, negative = inhibition” value turn out when `O=C1NC(=O)N(Cc2ccccc2)C(=O)/C1=C\C=C\c1ccco1` was run?
The value was inactive: -22.5%.

For `[Cl][Pt+2][Cl].[NH-]C1CCCCC1[NH-]` (stereo unspecified), which “activity, negative = inhibition” value is on record?
The value was inactive: -18.8%.

With `NC(N)=Nc1ccc2[nH]c3c(c2c1)C[C@@]1(O)[C@H]2Cc4ccc(O)c5c4[C@@]1(CCN2CC1CC1)C3O5` (stereo partly specified) as the compound, how does the “activity, negative = inhibition” value read?
Its value is inactive: 1.96%.

With `CN(C)[C@@H]1C(=O)C(C(N)=O)=C(O)[C@@]2(O)C(=O)C3=C(O)c4c(O)cccc4[C@@](C)(O)[C@H]3[C@H](O)[C@@H]12` as the compound, how does the “activity, negative = inhibition” value read?
Its value is inactive: -22.6%.

`Cc1cc2c(C(C)C)c(O)c(O)c(C=O)c2c(O)c1-c1c(C)cc2c(C(C)C)c(O)c(O)c(C=O)c2c1O` was tested. Which “activity, negative = inhibition” value did it give?
The value was inactive: 0.543%.

How did the “activity, negative = inhibition” value turn out when `O=C1NC(=O)N(c2ccccc2)C(=O)/C1=C/c1ccc([N+](=O)[O-])s1` was run?
The value was inactive: -14.2%.

How did the “activity, negative = inhibition” value turn out when `COc1cc(CNC(=O)CCCC/C=C\C(C)C)ccc1O` was run?
Its value is inactive: 0.838%.

`CCC(COC(=O)c1cc(OC)c(OC)c(OC)c1)(c1ccccc1)N(C)C` (stereo unspecified) was tested. Which “activity, negative = inhibition” value did it give?
The value was inactive: -3.64%.

For `Cc1ccc(N2C(=O)NC(=O)/C(=C\c3ccoc3)C2=O)cc1`, which “activity, negative = inhibition” value is on record?
Its value is inactive: 1.37%.

`CC(C)n1c(/C=C/[C@@H](O)C[C@@H](O)CC(=O)O)c(-c2ccc(F)cc2)c2ccccc21` was tested. Which “activity, negative = inhibition” value did it give?
Its value is inactive: -1.93%.

How did the “activity, negative = inhibition” value turn out when `O=C1C[C@@H](c2ccc(O)cc2)Oc2cc(O)cc(O)c21` was run?
The value was inactive: 1.26%.
